Assay results as given in the supplement of paper PMC11417369.
± gives the standard deviation of the averaged measurements. The list shows a part of the results.

system: PfAP2-EXP AP2 domain (GST-tagged); experiment: gcPBM binding intensity (ln(normalized median fluorescence intensity)); higher = stronger DNA binding
How it was run: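 Binding of GST-tagged P. falciparum DNA-binding domains, expressed in E. coli and used at about 25 μg on average, was carried out for 1 h in 1× PBS containing 1% milk, 0.2 mg/ml BSA, 0.5% salmon testes DNA and 0.03% Triton X-100. The target was an Agilent 4 × 180k array of primer-extended double-stranded 36-bp intergenic genomic probes plus negative controls, read with Alexa488 anti-GST antibody at 488 nm. Binding intensity is the highest Masliner-normalised natural-log median intensity across replicate spots of either probe orientation.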

Sequence	gcPBM binding intensity (ln)
TAGTATAATATGAACACACACACACCCACAAAAAAA [CACACA_site2009]	8.93 ± 0.58
GTACAAAAAAAAATAAAATACATATATATATATATA [GTGCAC_negctrl_site364]	10.1 ± 0.41
GAATATATAAGATACACACACAAATTAAATATAAAA [CACACA_site2781]	8.82 ± 0.32
TATTATATATATGTTGACATATTTGTACACTCCACT [TGCATGCA_negctrl_site200]	8.79 ± 0.61
AAAATATTTCATATATGTACTTAAAAAAAAAAAAAA [XGTACX_site5399]	8.27 ± 0.38
AAAAAATTCATATATACACACACGCACATATATATA [CACACA_site4226]	8.66 ± 0.27
CACTTTTCTGGAAAAATTCCCACATTTTTTTATTAA [GTGCAC_negctrl_site322]	8.48 ± 0.44
AAAAAAAAAAAAAACACACACACACGCATAAATATA [CACACA_site6217]	8.69 ± 0.55
TTATGTAAAAAAAAAAAAAAAAAAAAAAAAAAAAAA [CACACA_negctrl_site984]	8.02 ± 0.36
TCTTCATATAAGAACACATGCAGATTTTTATTATTG [TGCATGCA_site682]	8.73 ± 0.18
GATAAAGTACTTTATACACACAAATATTTATTTATA [CACACA_site7795]	8.61 ± 0.37
AAAAAAAAAAAAAAACGTACACATATTATGTTATTT [XGTACX_site5264]	8.645 ± 0.049
CATATAATATAATTATGTACATATATAATAATATAC [XGTACX_site5278]	8.47 ± 0.29
AAAAAAAAGTTGTATTGTACAAAAAAAAAAAAAAAA [XGTACX_site8334]	8.35 ± 0.5
TCATAAAAACTAATACGTACTTAAAAATATGAACTT [XGTACX_site2939]	8.61 ± 0.48
AATCCCCACTTGTCAAGTACATATATCATGGATGAA [XGTACX_site3486]	8.73 ± 0.52
GCCAAAATCTAATTTACACACTTATTAAATAATTAC [CACACA_site6251]	8.38 ± 0.38
TATTTATAACAAAGGTTAAATTAAAACTAATCCACA [TGCATGCA_negctrl_site3]	8.15 ± 0.31
GACATAGTCATATACTGTACTTTATATTATTGTGTA [XGTACX_site6636]	8.35 ± 0.3
TTTTTTTTTTTTTTTTGTACTTATAAAAAATTTTTT [XGTACX_site1249]	8.26 ± 0.35
TACAGATATAAACACACACACATATATATATATATA [CACACA_site4846]	10.2 ± 0.48
TTTTTTTTCATTGGTTGTACAATATTTATAATTCAC [XGTACX_site7036]	8.635 ± 0.007

Sequence	gcPBM binding intensity (ln)
TTTGTTAATATAAAAACACACAAAAATAACATAAAA [CACACA_site2619]	8.71 ± 0.38
ATGTAATATTTACAACGTACAAATTATAAACATATT [XGTACX_site603]	8.54 ± 0.3
TCATATTGGCTGTTCTGTACTTATAAGTTTTAAAGA [XGTACX_site5593]	8.88 ± 0.36
TATATTAAAAAAGAGGTGCATTCGTAAGAGGTTAAA [GTGCAC_site9720]	8.75 ± 0.33
ATATATATATATATATGTACATATACATATGTGCAA [XGTACX_site5604]	10 ± 0.5
AAATGAATAAATAGGTCACACACAAATATATATAAA [CACACA_site8764]	8.88 ± 0.42
TATTTTTAAAATATAAGTAAAAAAATAATATAAACT [TGCATGCA_negctrl_site283]	8.69 ± 0.55
AATAAATAAAGAAGTACACACATATATATATATATA [CACACA_site4314]	10.1 ± 0.41
ATAATAAAAAAAATTAGTACATATATAAATATAAAT [XGTACX_site1937]	8.3 ± 0.33
ATATATCTATAAAAGGCTTCCCACTTTTTTTGTCAA [TGCATGCA_negctrl_site332]	8.57 ± 0.25
TAATTTCTTAGGTATTGTACAAATATTATATGATAT [XGTACX_site256]	8.55 ± 0.43
AGTACATTTTTGTGTGTGCACTAATATTATATACTT [GTGCAC_site9568]	8.88 ± 0.11
TAAATAATATCTATCACACACGCATAAATACAGATA [CACACA_site5449]	8.55 ± 0.45
ATAAAAAAAAAAAAAAGTACACATATAAAAGTATTG [XGTACX_site8265]	8.42 ± 0.41
ATTTATTTTATTTTCACACACAAAAATAAATATCCG [CACACA_site2414]	8.44 ± 0.44
CGCAATTAAAATATGTGTCCTCATTTTATAACATTT [XGTACX_site5340]	8.51 ± 0.38
AAATTTATGTGTGCCTGTACATATCAAAGATTTAAG [XGTACX_site8547]	8.49 ± 0.28
TATAATGTATGTAGTGCACACCTCTATAATATATTA [CACACA_site8560]	8.92 ± 0.14
ATTCTACCACGCGATATACACACTTGTAGACATCTT [CACACA_site188]	8.97 ± 0.49
TGTATAATATTTGGTGCACACAAATTAACAACTGTT [CACACA_site9245]	9.21 ± 0.32
AATATTAAAATAAAAAGTACTTATTTATGTATGTTG [XGTACX_site2682]	8.52 ± 0.21
TATTTACAAAAAAAATATAAAAAATATAAAATATAT [CACACA_negctrl_site575]	8.12 ± 0.31

Sequence	gcPBM binding intensity (ln)
TTTATATAACAACAAAATGGAAATATATATGTATGT [TGCATGCA_negctrl_site98]	8.68 ± 0.39
AAAAAAAAAAAAGAACGTACAAATTAATTTATAGAA [XGTACX_site5584]	8.75 ± 0.44
CAGACATATTAAAAGAGTACATATATATATATATAT [XGTACX_site1158]	10.3 ± 0.28
TGTTTATTACTCAGGTGTACTCAATTTTTTTTTTTT [XGTACX_site3470]	8.69 ± 0.36
TACACAAATATATACATACACACATATATACGCATA [CACACA_site394]	8.55 ± 0.45
TAATATTGACTATATACACACATATATATATATATA [CACACA_site575]	10.2 ± 0.28
GAACAATATATTTGCACACAAAAAATATATATTTAT [CACACA_site3317]	8.61 ± 0.31
ATACAAGTATTAATTACACACTCAAAAAGAAAAAAC [CACACA_site5287]	8.64 ± 0.46
TAGATTTAAAAAAAAAAAAAATTTTTTTTTTTTTTT [TGCATGCA_negctrl_site593]	8.24 ± 0.47
GAATACTCATTTCTTTGTACATATATATGTGTATTT [XGTACX_site6411]	8.97 ± 0.39
GTTTACATCATTCTGGTGCAAAAAAAAAAAAAAATA	8.67 ± 0.21
GGATAAAAAATATGTACACACATATAGATATCTATA [CACACA_site2693]	8.56 ± 0.46
TTCATATGGAATAAAAGTACGTATTAAAACAATTTT [XGTACX_site8742]	8.66 ± 0.35
CATATAAACAATAACACACACCTAGGTACATGGAAA [CACACA_site4615]	8.94 ± 0.56
CTTTTTAATTTATCGACACACGCATGAATAGAAATT [CACACA_site9112]	8.54 ± 0.51
AAAGCAAATAATAAGTGTACGGGTCAATATATGCGT [XGTACX_site1519]	9.04 ± 0.5
GTGTACAAAATATGGTAATAAAGTAGTTACATGAAT [CACACA_negctrl_site1775]	8.93 ± 0.53
CTAAATTGTTAATAGAGTACATTTGTATAATATAAG [XGTACX_site594]	8.44 ± 0.13
TTATGTTGTAAATACACACATACATATACATACACA [CACACA_site733]	8.57 ± 0.37
AATAAAATATAATAATTAATATATATATATATATAA [GTGCAC_negctrl_site457]	8.23 ± 0.22
TATGTGAAATAAGGATGTACAATTTTGATTTCCCCA [XGTACX_site8389]	8.86 ± 0.52
TTTAATGAAAGAAACACATACGTATCAAAATATATG [TGCATGCA_negctrl_site510]	8.76 ± 0.41

Sequence	gcPBM binding intensity (ln)
TACGTTGTATATTTTTGTACATATTGAATTACAAAA [XGTACX_site5906]	8.53 ± 0.32
TTTTAATAATTTATAAAAAAAAAAAAAAAATAAATA [TGCATGCA_negctrl_site419]	8.21 ± 0.49
CATAGAATAATTTATTGTACGTGCATGCTATTTTTT [XGTACX_site8984]	9.22 ± 0.42
TATAATATTTATATAACACACATATATATTTATTTA [CACACA_site280]	8.15 ± 0.24
AATGCTATCTTCTTATTTTTCATACACAACATGAAC [CACACA_negctrl_site1809]	8.95 ± 0.44
AAAATAAATTTTTATGTTATATATACAATTTCTCTA [CACACA_negctrl_site1760]	8.12 ± 0.22
ATTAAATATATGATGTGTACATATTCGTGTATGTTT [XGTACX_site2141]	8.48 ± 0.33
AAACAGAATACATATACACACATACAAAAAAGTGCA [CACACA_site8235]	9 ± 0.24
TATACATTTTTATAAAGTACACAAAAATAAATATAA [XGTACX_site1647]	8.54 ± 0.33
TTATGAAATAGAATAACACACATATTTATATATGTG [CACACA_site2050]	8.14 ± 0.44
TTTTTTTATATTTTTAGTACACATTGGTATATATAT [XGTACX_site4114]	8.79 ± 0.42
TATTTTTTTAAAAATACACACATAAAATCATGAAAA [CACACA_site1085]	8.61 ± 0.47
ATATATATATGTCAAAGTACTAAAAATATATACATA [XGTACX_site3397]	9.5 ± 0.028
TTTATTTATCTGAACACATGCAGACAAATAACATAT [TGCATGCA_site929]	8.88 ± 0.32
TATCACATATTATGATGTACAAGGATTCTGACTAAT [XGTACX_site1196]	8.45 ± 0.4
CATAAACTTTATAACACACACTTATAAATATAAATA [CACACA_site6646]	8.41 ± 0.4
ATTATATATAAACACACACACATGCATGCACATATA [CACACA_site4237]	10 ± 0.26
GTTATAAAATATGGCACACAAAATGTAAGTAAATGA [CACACA_site1458]	8.97 ± 0.42
GATCTTTAAATTTATTGTACATAAATGTATATGTTA [XGTACX_site1107]	8.59 ± 0.45
ATATATTTTGTTATGGTGCGTAAGAAATATATTCTT [GTGCAC_site9825]	8.65 ± 0.23
TATATATAGAAACACACACACATATATATATATTTT [CACACA_site2540]	8.56 ± 0.77
TATATATTATAAAATAGTACACAGAATTTAAATATA [XGTACX_site100]	8.69 ± 0.46
